Assay results published in patent US10493061B2, “Compositions and methods comprising 2-(acylamino)imidazoles” (priority 2014, dated 2019).

Tested on: metal trafficking genes (MT1F, MT1X, MT2A, SLC30A1, SLC30A2) in MCF-7 cells
Experiment: Transcriptome sequencing (RNA-seq)
Conditions: 30 μM ZNA, only after three hours, not sustained at 12 hours

COc1ccc(-c2c(Cc3ccccc3)[nH]/c(=N\C(=O)c3ccccc3F)n2C)cc1 [ZNA, (E)-N-(4-benzyl-5-(4-methoxyphenyl)-1-methyl-1H-imidazol-2(3H)-ylidene)-2-fluorobenzamide]
expression of SLC30A1 and SLC30A2 transcripts: increased expression
